Data published in the supplement of paper PMC9911699.
The other results are listed elsewhere or left out.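 Rule for the calls: active = average curve height above 101 Omnilog units; inactive = average height at or below 101.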 Most values come without repeats; read them as rough.

Assays:
[1] = tested on: Acinetobacter baumannii AB6870155; test: respiration area under curve on compound as sole carbon source (Biolog PM, 48 h) (arbitrary Omnilog units x h (AUC)); higher = more carbon source utilisation / respiration; settings: Biolog inoculating fluid, temperature: 37 °C
[2] = tested on: Klebsiella pneumoniae KP6870155; test: as above; settings: Biolog inoculating fluid, temperature: 37 °C

| SMILES | respiration area under curve [1] | respiration area under curve [2] |
| --- | --- | --- |
| OC[C@H]1O[C@H](OC[C@H]2O[C@H](OC[C@H]3O[C@H](O[C@]4(CO)O[C@H](CO)[C@@H](O)[C@@H]4O)[C@H](O)[C@@H](O)[C@@H]3O)[C@H](O)[C@@H](O)[C@H]2O)[C@H](O)[C@@H](O)[C@H]1O [Stachyose] | inactive: 1440 | active: 11900 |
| OC[C@H]1OC(O)[C@H](O)[C@@H](O)[C@H]1O (stereo partly drawn) [D-Galactose] | inactive: 2720 | active: 12300 |
| O=C1O[C@H]([C@@H](O)CO)[C@@H](O)[C@@H]1O [L-Galactonic Acid-Gamma-Lactone] | inactive: 2570 | active: 8340 |
| OC[C@H]1O[C@H](OC[C@H]2O[C@H](O[C@]3(CO)O[C@H](CO)[C@@H](O)[C@@H]3O)[C@H](O)[C@@H](O)[C@@H]2O)[C@H](O)[C@@H](O)[C@H]1O [D-Raffinose] | inactive: 1980 | active: 11900 |
| NC(=O)[C@H]1O[C@@H](O)[C@H](O)[C@@H](O)[C@@H]1O [Glucuronamide] | inactive: 6600 | active: 8520 |
| O=C(O)[C@@H](O)[C@H](O)C(=O)O [D-Tartaric Acid] | inactive: 2520 | inactive: 3590 |
| O=C(CO)CO [Dihydroxy Acetone] | inactive: 3350 | active: 12100 |
| OC[C@@H](O)[C@@H](O)[C@H](O)[C@@H](O)CO [D-Sorbitol] | inactive: 1690 | active: 10700 |
| CCC(C)N (configuration not stated) [Sec-Butylamine] | inactive: 1500 | inactive: 4320 |
| C[C@H](O)[C@@H](N)C(=O)O [D-Threonine] | inactive: 1690 | inactive: 3520 |
| CO[C@@H]1O[C@H](CO)[C@H](O)[C@H](O)[C@H]1O [Beta-Methyl-D-Galactoside] | inactive: 1520 | active: 11300 |
| O=C(O)CCCCCCCCC(=O)O [Sebacic Acid] | active: 10200 | inactive: 2900 |
| C=C(CC(=O)O)C(=O)O [Itaconic Acid] | inactive: 1400 | inactive: 1710 |
| COC1OC(CO)C(O)C(O)C1O [Alpha-Methyl-D-Mannoside] | inactive: 1570 | inactive: 4160 |
| O[C@@H]1[C@@H](O)[C@@H](O)CO[C@H]1O [L-Arabinose] | active: 12100 | active: 11600 |
| O=C(O)CC(O)(CC(=O)O)C(=O)O [Citric Acid] | active: 9470 | active: 10600 |

| SMILES | respiration area under curve [1] | respiration area under curve [2] |
| --- | --- | --- |
| COC(=O)C(C)=O [Methyl Pyruvate] | active: 11200 | active: 10500 |
| CC(=O)N[C@H]1[C@H]([C@H](O)[C@H](O)CO)OC(O)(C(=O)O)C[C@@H]1O (some centres not stated) [N-Acetyl-Neuraminic Acid] | inactive: 1540 | inactive: 3550 |
| CCC(=O)O [Propionic Acid] | active: 10500 | inactive: 3200 |
| NCCCCC(=O)O [Delta-Amino Valeric Acid] | inactive: 1650 | inactive: 4620 |
| N[C@@H](Cc1ccccc1)C(=O)O [L-Phenylalanine] | active: 11400 | inactive: 7580 |
| OC1OC[C@@H](O)[C@@H](O)[C@@H]1O (stereo partly drawn) [D-Arabinose] | inactive: 1620 | inactive: 4370 |
| O=CC(=O)O [Glyoxylic Acid] | inactive: 1890 | inactive: 3380 |
| O[C@H]1[C@H](O)[C@@H](O)[C@H](O)[C@@H](O)[C@H]1O [Myo-Inositol] | inactive: 1670 | active: 10800 |
| N[C@@H](CCC(=O)O)C(=O)O [L-Glutamic Acid] | active: 12100 | active: 11200 |
| N[C@@H](CC(=O)O)C(=O)O [L-Aspartic Acid] | active: 12000 | active: 11600 |
| CC(=O)C(=O)O [Pyruvic Acid] | active: 11900 | active: 11600 |
| O=C(O)c1ccc(O)cc1 [4-Hydroxy Benzoic Acid] | active: 10100 | active: 9350 |
| Cc1cn([C@H]2C[C@H](O)[C@@H](CO)O2)c(=O)[nH]c1=O [Thymidine] | inactive: 2330 | active: 11700 |
| CC(=O)N[C@@H](CCC(=O)O)C(=O)O [N-Acetyl-L-Glutamic Acid] | inactive: 1430 | inactive: 3240 |
| OCC1OC(OC2C(CO)OC(O)C(O)C2O)C(O)C(O)C1O [D-Cellobiose] | inactive: 2310 | active: 10700 |
